From the RNAGym collection of RNA variant scans (doi:10.1101/gad.245936.114)
Variants at the background level are over-represented here.

B1: tRNA (parent)
chain: CUCUCGGUAGCCAAGUUGGUUUAAGGCGCAAGACUUUAAUUUAUCACUACGAAAUCUUGAGAUCGGGCGUUCGACUCGCCCCCGGGAGAUUUUUUCCUCGAGCAA

Variants of: B1
Test: nonsense suppression (GFP-seq) (ratio to wild type); higher = more function; SUP4oc tRNA, yeast GFP reporter sort-seq
Outline: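 Sorted GFP/RFP bins of yeast were each Illumina-sequenced with a phred ≥30 cutoff; the cells held a genome-integrated ochre-suppressor tRNA variant from a library with ~3% random mutations, a galactose-driven GFP ochre reporter, and RFP. Culture was in raffinose/galactose medium containing 80 mg/L adenine. Nonsense suppression, termed GFPSEQ, is the median GFP/RFP of the bins weighted by each variant's estimated cell share per bin, relative to the unmutated parent tRNA, for variants reaching ≥100 reads and ≥30 cells.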

Row | Variant | nonsense suppression
1 | CUCUCGGUAGCCAAGUUGGUUUAAGGCGCAAGACUUUAAUUUAUCACUACGAAAUCUUGAGAUCGGGCGUUCAACUGGCCCCCGGGAGAUUUUUUCCUCGAGCAA [G73A C77G] | ≤ 0.026
2 | CUCUCGGUAGCCAAGUUGGUUUAAGGCGCAAGACUUUAAUUUAUCACUACGAAAUCUUGAGAUCGGGCGUUUGACUCACCCCCGGGAGAUUUUUUCCUCGAGCAA [C72U G78A] | 0.0322
3 | CUCUCGGUAGCCAAGUUGGUUUAAGGCGCAAGACUUUAAUUUAUCACUACGAAAUCUUGAGAUCGGGCGUUGGACUCGCCCCCGGGGGAUUUUUUCCUCGAGCAA [C72G A87G] | ≤ 0.026
4 | CUCUCGGUAGCCAAGUUGGUUUAAGGCGCAAGACUUUAAUUUAUCACUACGAAAUCUUGAGAUCGGGCGUUAGACUCCCCCCCGGGAGAUUUUUUCCUCGAGCAA [C72A G78C] | ≤ 0.026
5 | CUCUCGGUAGCCAAGUUGGUUUAAGGCGCAAGACUUUAAUUUAUCACUACGAAAUCUUGAGAUCGGGCGUUGGACUCGCACCCGGGAGAUUUUUUCCUCGAGCAA [C72G C80A] | ≤ 0.026
6 | CUCUCGGUAGCCAAGUUGGUUUAAGGCGCAAGACUUUAAUUUAUCACUACGAAAUCUUGAGAUCGGGCGUUUGACUCGCCCCCGGCAGAUUUUUUCCUCGAGCAA [C72U G86C] | ≤ 0.026
7 | CUCUCGGUAGCCAAGUUGGUUUAAGGCGCAAGACUUUAAUUUAUCACUACGAAAUCUUGAGAUCGGGCGUUCUACUCGCCCCAGGGAGAUUUUUUCCUCGAGCAA [G73U C83A] | ≤ 0.026
8 | CUCUCGGUAGCCAAGUUGGUUUAAGGCGCAAGACUUUAAUUUAUCACUACGAAAUCUUGAGAUCGGGCGUGAGACUCGCCCCCGGGAGAUUUUUUCCUCGAGCAA [U71G C72A] | ≤ 0.026
9 | CUCUCGGUAGCCAAGUUGGUUUAAGGCGCAAGACUUUAAUUUAUCACUACGAAAUCUUGAGAUCGGGCGUUAGUCUCGCCCCCGGGAGUUUUUUUCCUCGAGCAA [C72A A74U A89U] | ≤ 0.026
10 | CUCUCGGUAGCCAAGUUGGUUUAAGGCGCAAGACUUUAAUUUAUCACUACGAAAUCUUGAGAUCGGGCGUUCCACUCGCCCCCGCGAGGUUUUUUCCUCGAGCAA [G73C G85C A89G] | ≤ 0.026
11 | CUCUCGGUAGCCAAGUUGGUUUAAGGCGCAAGACUUUAAUUUAUCACUACGAAAUCUUGAGAUCGGGCGUUGGACUCGCCCCGGGGAGAUUUUUUCCUCGAGCAA [C72G C83G] | ≤ 0.026
12 | CUCUCGGUAGCCAAGUUGGUUUAAGGCGCAAGACUUUAAUUUAUCACUACGAAAUCUUGAGAUCGGGCGUUGGACUCGUCCCCGGGAGAUUUUUUCCUCGAGCAA [C72G C79U] | ≤ 0.026
13 | CUCUCGGUAGCCAAGUUGGUUUAAGGCGCAAGACUUUAAUUUAUCACUACGAAAUCUUGAGAUCGGGCGUUCCACUCGCCCUCGGGAGAUUUUUUCCUCGAGCAA [G73C C82U] | ≤ 0.026
14 | CUCUCGGUAGCCAAGUUGGUUUAAGGCGCAAGACUUUAAUUUAUCACUACGAAAUCUUGAGAUCGGGCGUGCGACUCGCCCCCAGGAGAUUUUUUCCUCGAGCAA [U71G G84A] | ≤ 0.026
15 | CUCUCGGUAGCCAAGUUGGUUUAAGGCGCAAGACUUUAAUUUAUCACUACGAAAUCUUGAGAUCGGGCGUGGAACUCGCCCCCGGGAGAUUUUUUCCUCGAGCAA [U71G C72G G73A] | ≤ 0.026
16 | CUCUCGGUAGCCAAGUUGGUUUAAGGCGCAAGACUUUAAUUUAUCACUACGAAAUCUUGAGAUCGGGCGUUCAACCCGCCCCCGGGAGAUUUUUUCCUCGAGCAA [G73A U76C] | 0.682
17 | CUCUCGGUAGCCAAGUUGGUUUAAGGCGCAAGACUUUAAUUUAUCACUACGAAAUCUUGAGAUCGGGCGUUCAACACGCCCCCGGGAGAUUUUUUCCUCGAGCAA [G73A U76A] | 0.0803
18 | CUCUCGGUAGCCAAGUUGGUUUAAGGCGCAAGACUUUAAUUUAUCACUACGAAAUCUUGAGAUCGGGCGUUUGACUCGCGCCCGGGAGAUUUUUUCCUCGAGCAA [C72U C80G] | ≤ 0.026
19 | CUCUCGGUAGCCAAGUUGGUUUAAGGCGCAAGACUUUAAUUUAUCACUACGAAAUCUUGAGAUCGGGCGUCCGACUCGCCCCCCGGAGAUUUUUUCCUCGAGCAA [U71C G84C] | ≤ 0.026
20 | CUCUCGGUAGCCAAGUUGGUUUAAGGCGCAAGACUUUAAUUUAUCACUACGAAAUCUUGAGAUCGGGCGUUGGACUCGCACCCGGGCGAUUUUUUCCUCGAGCAA [C72G C80A A87C] | ≤ 0.026
21 | CUCUCGGUAGCCAAGUUGGUUUAAGGCGCAAGACUUUAAUUUAUCACUACGAAAUCUUGAGAUCGGGCGUUCAACUCGCCCCCGGGAGGUUUUUUCCUCGAGCAA [G73A A89G] | ≤ 0.026
22 | CUCUCGGUAGCCAAGUUGGUUUAAGGCGCAAGACUUUAAUUUAUCACUACGAAAUCUUGAGAUCGGGCGUCCGACUCGCCCCCGGGAUAUUUUUUCCUCGAGCAA [U71C G88U] | ≤ 0.026
23 | CUCUCGGUAGCCAAGUUGGUUUAAGGCGCAAGACUUUAAUUUAUCACUACGAAAUCUUGAGAUCGGGCGUGCGACGCGCCCCCGGGAGGUUUUUUCCUCGAGCAA [U71G U76G A89G] | ≤ 0.026
24 | CUCUCGGUAGCCAAGUUGGUUUAAGGCGCAAGACUUUAAUUUAUCACUACGAAAUCUUGAGAUCGGGCGUUCUACUCGCCCCCGCGAGAUUUUUUCCUCGAGCAA [G73U G85C] | ≤ 0.026
25 | CUCUCGGUAGCCAAGUUGGUUUAAGGCGCAAGACUUUAAUUUAUCACUACGAAAUCUUGAGAUCGGGCGUUUGACUCGCCCCCCAGAGAUUUUUUCCUCGAGCAA [C72U G84C G85A] | ≤ 0.026
26 | CUCUCGGUAGCCAAGUUGGUUUAAGGCGCAAGACUUUAAUUUAUCACUACGAAAUCUUGAGAUCGGGCGUUGGACUCACCCCCGGGAGAUUUUUUCCUCGAGCAA [C72G G78A] | 0.0282
27 | CUCUCGGUAGCCAAGUUGGUUUAAGGCGCAAGACUUUAAUUUAUCACUACGAAAUCUUGAGAUCGGGCGUUGGACUCUCCCCCGGGAGAUUUUUUCCUCGAGCAA [C72G G78U] | ≤ 0.026
